# Data: PubChem BioAssay AID1460 (National Center for Advancing Translational Sciences (NCATS), 2008)
# Hit rate of the full screen: of about 270,000 compounds, about 5,800 (2.1%) were called active. This list was built around the results that the source calls inconclusive (neither active nor inactive); the mix of calls is not that of the screen. Calls come from the whole dose curve; as a rule, active = well fitted inhibition curve with a large enough effect; inconclusive = small, poorly fitted or top-dose-only effect; inactive = flat fitted curve, though single readings scatter. Where the call is inconclusive, the potency comes from a doubtful curve fit.
# Target: Microtubule-associated protein tau (Homo sapiens) (UniProt P10636)
# Chain of UniProt P10636 (P10636 whole entry, looked up): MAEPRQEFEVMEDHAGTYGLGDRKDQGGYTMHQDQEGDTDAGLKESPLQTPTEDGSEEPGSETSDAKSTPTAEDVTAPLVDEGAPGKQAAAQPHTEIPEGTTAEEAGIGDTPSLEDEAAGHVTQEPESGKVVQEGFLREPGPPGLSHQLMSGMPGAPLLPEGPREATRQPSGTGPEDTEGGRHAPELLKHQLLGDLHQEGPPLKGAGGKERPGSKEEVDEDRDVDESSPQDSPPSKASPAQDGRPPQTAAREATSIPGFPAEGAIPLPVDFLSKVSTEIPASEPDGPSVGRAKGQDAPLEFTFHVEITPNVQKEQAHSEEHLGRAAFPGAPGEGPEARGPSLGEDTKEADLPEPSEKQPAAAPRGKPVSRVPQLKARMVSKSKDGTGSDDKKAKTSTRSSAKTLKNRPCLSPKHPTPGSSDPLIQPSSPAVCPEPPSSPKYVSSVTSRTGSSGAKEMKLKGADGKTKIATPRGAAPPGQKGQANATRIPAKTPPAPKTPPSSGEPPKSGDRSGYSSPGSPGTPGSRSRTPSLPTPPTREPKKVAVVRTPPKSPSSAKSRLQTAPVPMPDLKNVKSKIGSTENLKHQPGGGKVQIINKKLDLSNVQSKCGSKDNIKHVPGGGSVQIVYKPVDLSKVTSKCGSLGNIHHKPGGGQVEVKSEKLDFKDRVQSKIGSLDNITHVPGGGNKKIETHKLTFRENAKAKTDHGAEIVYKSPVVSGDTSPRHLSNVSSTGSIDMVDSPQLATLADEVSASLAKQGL
# Experiment: qHTS for Inhibitors of Tau Fibril Formation, Thioflavin T Binding; note: nearly all actives have a fitted effect of over 55% in size
# Conditions: recombinant tau K18 P301L (four-repeat tau fragment), heparin-induced fibrillization, ThT fluorescence; series mostly up to 57.4 µM; activity, negative = inhibition: at the top concentration
# How it was run: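 K18 P301L tau (15 uM + 0.24 uM Alexa 594-tagged), heparin 20 uM, NaOAc pH 7, 6 h 37 C; ThT 30 uM, 1 h RT, ex 450/em 510 nm.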
# % is set by controls: 0 for no effect and ±100 for the full control effect; potency is the fitted concentration of half-maximal effect; tags give direction and shape of the fitted curve.
SMILES,Potency,"activity, negative = inhibition"
O=C(O)/C=C/C(=O)NNC(=O)c1ccc(Br)cc1,"inconclusive: 7.94 µM [inhibitor, full curve]",
CN(C)c1ccc(N2C(=O)CC(Nc3ccc(N4CCOCC4)cc3)C2=O)cc1 (centres undefined),active: 14.1 µM,
CCC(=O)c1ccc(OC(=O)c2cnccn2)cc1,"inconclusive: 39.8 µM [inhibitor, single point]",
O=C(NCCS(=O)(=O)N1CCN(c2ccccc2)CC1)C(c1ccccc1)c1ccccc1,,inactive: 10.5%
Cc1cccc(NC(=O)c2c(NC(=O)C(F)(F)F)sc3c2CCCCC3)c1,active: 15.8 µM,
Cc1ccc(C(=O)C(NC(=O)c2ccco2)N2CCOCC2)cc1 (centres undefined),"inconclusive: 14.1 µM [inhibitor, partial curve]",
COc1cccc(N2CCN(S(=O)(=O)c3ccc4[nH]c5c(c4c3)CCCC5)CC2)c1,,inactive: 1.63%
Cc1cc2c(c(=O)n1CC1CCCO1)C(c1ccc3c(c1)OCO3)C(C#N)=C(N)O2 (centres undefined),"inconclusive: 11.2 µM [inhibitor, partial curve, poor fit]",
CCc1ccc(CNCc2c(C(=O)O)n(Cc3cccc(F)c3)c3cc(OC)ccc23)cc1,,inactive: -2.31%
O=C(c1ccco1)N1CCN(c2nc3ccsc3c(=O)s2)CC1,"inconclusive: 10 µM [inhibitor, partial curve]",
N#Cc1nc(COc2ccccc2F)oc1NCCc1ccccc1,"inconclusive: 15.8 µM [inhibitor, partial curve]",
Cc1ccc(N2C(=O)C(Cl)=C(N3CCN(C)CC3)C2=O)c(C)c1,active: 14.1 µM,
COc1cccc(-c2nnc(SCC(=O)Nc3ccc(OC)c(OC)c3)n2N)c1,"inconclusive: 20 µM [inhibitor, partial curve]",
CCOC(=O)c1sc(=S)n(CC)c1NC(=O)c1ccccc1,,inactive: 6.01%
Cc1cc(/C=N/NC(N)=S)c(O)c(/C=N/NC(N)=S)c1,"inconclusive: 12.6 µM [inhibitor, partial curve]",
Cc1ccc2nc3sc(C(=O)Nc4c(C)[nH]c(=O)[nH]c4=O)c(N)c3cc2c1,"inconclusive: 2.51 µM [inhibitor, full curve]",
Cc1cc(NC(=O)c2ccc3c(c2)OCO3)ccc1NC(=O)c1ccco1,"inconclusive: 3.55 µM [inhibitor, full curve]",
Cc1ccc(Nc2nc(-c3cccs3)cs2)nc1,active: 15.8 µM,
NC(=O)CSc1nc2ccc([N+](=O)[O-])cc2[nH]1,"inconclusive: 31.6 µM [inhibitor, partial curve]",
CCC(C)/C(C)=N/NC(=O)c1ccc(COc2ccc(Cl)c(C)c2)cc1 (centres undefined),"inconclusive: 15.8 µM [inhibitor, partial curve]",
CCc1c(C)sc2nc3c(C(=O)N4CCOCC4)cc(C(=O)c4ccccc4O)cn3c(=O)c12,,inactive: -15.2%
Cc1ccc(/C=C2\CC(C)CC3=C2NC(=S)NC3c2ccc(C)cc2)cc1 (centres undefined),"inconclusive: 35.5 µM [inhibitor, partial curve, poor fit]",

SMILES,Potency,"activity, negative = inhibition"
CCCn1c(SCC(=O)c2cc(C)n(-c3ccc4c(c3)OCO4)c2C)n[nH]c1=O,"inconclusive: 22.4 µM [inhibitor, single point]",
CCOC(=O)c1oc2c(c1C)-c1nn(Cc3ccc(Cl)cc3)cc1CC2,"inconclusive: 11.2 µM [inhibitor, partial curve, poor fit]",
CCNC(=O)CCc1nc(-c2ccc(C)cc2)no1,"inconclusive: 25.1 µM [inhibitor, single point]",
O=C(CN1CCN(c2ccc(Cl)cc2)CC1)NCc1ccccc1,,inactive: -10.5%
CC(=O)C1C(=O)c2c(cccc2[N+](=O)[O-])C1=Nc1ccc(S(N)(=O)=O)cc1 (centres undefined),active: 12.6 µM,
COc1ccc([N+](=O)[O-])cc1NCc1cccc([N+](=O)[O-])c1,"inconclusive: 11.2 µM [inhibitor, partial curve]",
CCOC(=O)Cc1ccc(NC(=O)NCc2ccc3c(c2)CCN3C(=O)CC)cc1,,inactive: -4.51%
CN(C)/C=N/c1sc2c(c1C#N)CCCC2,"inconclusive: 14.1 µM [inhibitor, partial curve, poor fit]",
C=C(C(=O)c1ccccc1)C(C)CC(=O)c1ccccc1 (centres undefined),"inconclusive: 20 µM [inhibitor, single point]",
CCn1c(=O)n(CC)c2cc(N3CCCCC3)c(NC(=O)Nc3ccccc3Cl)cc21,"inconclusive: 12.6 µM [inhibitor, partial curve, poor fit]",
COc1cccc(Oc2nc3c(c(=O)n(Cc4ccccc4F)c(=O)n3C)n2C)c1,,inactive: -0.604%
COc1ccccc1C(=O)Nc1cc2c(cc1N1CCOCC1)n(C)c(=O)n2C,,inactive: -11%
N#Cc1ccc(CS(=O)(=O)c2nnnn2-c2ccccc2)cc1,"inconclusive: 7.08 µM [inhibitor, single point]",
CCc1ccc2c(c1)NC(c1cccs1)=NC(c1ccc(F)cc1)=N2,"inconclusive: 25.1 µM [inhibitor, partial curve]",
CCOc1cc(/C=N/N=C2/NC(=O)C(CC(=O)O)S2)ccc1OCc1ccc(Cl)cc1Cl (centres undefined),"inconclusive: 14.1 µM [inhibitor, partial curve]",
O=C(N/N=C/c1ccc([N+](=O)[O-])o1)c1ccncc1,"inconclusive: 11.2 µM [inhibitor, partial curve]",
O=C(O/N=C\c1ccc(N2CCOCC2)c([N+](=O)[O-])c1)c1ccc(F)cc1,active: 5.01 µM,
CCN1C(=O)/C(=C2/C=CC=CN2C)SC1=S,"inconclusive: 17.8 µM [inhibitor, partial curve]",
C/C=C\C=C\C(=O)N1CC2(CC(c3cccc(NC(=O)CC(c4ccccc4)c4ccccc4)c3)=NO2)C[C@H]1C(N)=O (some centres undefined),,inactive: -7.95%
CCOc1ccc(NC(=O)Nc2cc(C)on2)cc1,"inconclusive: 11.2 µM [inhibitor, partial curve]",
CCOc1ccc(N2C(=O)C3Sc4[nH]c(=O)sc4C(/C=C/c4ccccc4)C3C2=O)cc1 (centres undefined),active: 14.1 µM,
CCCCSc1nnc(-c2ccccc2)c2ccccc12,"inconclusive: 15.8 µM [inhibitor, single point]",
